This passage reports IC50 results from US8648074B2, “Substituted octahydropyrrolo[1,2-a]pyrazine sulfonamides as calcium channel blockers” (AbbVie Inc., priority 2011, dated 2014).

pIC50: −log10 of the molar value.

This assay has as its target human Cav2.2 (Homo sapiens, UniProt Q00975). In words: In vitro assessment of calcium channel activity using FLIPR (Ca2+ influx in IMR32 cells). Type of assay: cell-based. Particulars: IMR32 cells endogenously expressing human Cav2.2; Calcium 4 dye, 60 minute pre-incubation, 2 μM nifedipine, depolarized with 80 mM KCl; average of at least two runs unless marked *. The procedure: The IMR32 cells were maintained in MEM media containing 10% (v/v) FBS, 1% (v/v) antibiotic/antimitotic, 1% (v/v) sodium pyruvate and 1% (v/v) MEM NEAA. Following dissociation in 0.05% (v/v) trypsin/EDTA, cells were seeded into black 1×96-well plates (Corning Cellbind) at a density of 1−1.2×10^5 cells/well and incubated in the maintenance media above for 48 hours at 37° C. Immediately prior to performing the assay the media was removed and cells were loaded for 1.5 hours with 1× Calcium 4 dye prepared in HBSS (137 mM NaCl, 5.4 mM KCl, 0.25 mM Na2HPO4, 0.44 mM KH2PO4, 1.3 mM CaCl2, 1 mM MgSO4, 4.2 mM NaHCO3) containing HEPES pH 7.4 at room temperature. After dye loading and a subsequent 60 minute pre-incubation with compounds (full log dilutions from 10 μM to 0.1 nM) in the presence of 1.3 mM CaCl2 and 2 μM nifedipine to block endogenous L-type channels, the external Ca^2+ concentration was increased to 5 mM CaCl2 and the cells concomitantly depolarized with 80 mM KCl to assay channel activity. To determine the IC50 values, the percent inhibition of the compound at each concentration was determined relative to the activity in the absence of inhibitor, and data was fitted using non-linear regression sigmoidal dose response curve analysis with GraphPad Prism®. Unless otherwise indicated (*), the reported values are average values from at least two runs (i.e., n≧2).
`Cc1cc(C)c(S(=O)(=O)N2CCN3C[C@H](Oc4cnc(C5CC5)cn4)C[C@H]3C2)c(C)c1` [Example 135, (7R,8aS)-7-[(5-cyclopropylpyrazin-2-yl)oxy]-2-(mesitylsulfonyl)-octahydropyrrolo[1,2-a]pyrazine]: the pIC50 was 5.76.
With `O=S(=O)(c1cc(F)cc(F)c1)N1CCN2C[C@H](Oc3cnc(C4CC4)cn3)C[C@H]2C1` [Example 126, (7R,8aS)-7-[(5-cyclopropylpyrazin-2-yl)oxy]-2-[(3,5-difluorophenyl)-sulfonyl]octahydropyrrolo[1,2-a]pyrazine] the figure was 5.46.
With `O=C1C(Cc2cccc(F)c2)C[C@H]2CN(S(=O)(=O)c3ccc(C(F)(F)F)cc3)CCN12` (stereo partly drawn) [Example 213, (8aS)-7-(3-fluorobenzyl)-2-{[4-(trifluoromethyl)phenyl]-sulfonyl}-hexahydropyrrolo[1,2-a]pyrazin-6(2H)-one] the figure was 5.91; with `Cc1cccc(S(=O)(=O)N2CCN3C[C@H](Oc4cnc(C5CC5)cn4)C[C@H]3C2)c1` [Example 145, (7R,8aS)-7-[(5-cyclopropylpyrazin-2-yl)oxy]-2-[(3-methylphenyl)-sulfonyl]octahydropyrrolo[1,2-a]pyrazine], 5.51.
With `N#Cc1ccc(O[C@@H]2C[C@H]3CN(S(=O)(=O)c4cccc(C(F)(F)F)c4)CCN3C2)cn1` [Example 86, 5-{[(7R,8aS)-2-{[3-(trifluoromethyl)phenyl]sulfonyl}octahydropyrrolo[1,2-a]pyrazin-7-yl]oxy}pyridine-2-carbonitrile], the pIC50 is 5.53.
The result for `O=C(NC(c1ccccc1)c1ccccc1)[C@H]1C[C@H]2CN(S(=O)(=O)c3ccc(F)c(C(F)(F)F)c3)CCN2C1` [Example 39, (7S,8aS)—N-(diphenylmethyl)-2-{[4-fluoro-3-(trifluoromethyl)phenyl]-sulfonyl}octahydropyrrolo[1,2-a]pyrazine-7-carboxamide] reads 5.72.
The result for `O=C1C(Oc2cnc(C3CC3)cn2)CC2CN(S(=O)(=O)c3ccc(C(F)(F)F)cc3)CCN12` (stereo not shown) [Example 212, 7-[(5-cyclopropylpyrazin-2-yl)oxy]-2-{[4-(trifluoromethyl)phenyl]-sulfonyl}hexahydropyrrolo[1,2-a]pyrazin-6(2H)-one] reads 4.97; that for `O=S(=O)(c1cc(F)cc(C(F)(F)F)c1)N1CCN2C[C@H](Oc3cnc(C4CC4)cn3)C[C@H]2C1` [Example 51, (7R,8aS)-7-[(5-cyclopropylpyrazin-2-yl)oxy]-2-{[3-fluoro-5-(trifluoromethyl)phenyl]sulfonyl}octahydropyrrolo[1,2-a]pyrazine], 5.86.
With `N#Cc1cccc(S(=O)(=O)N2CCN3C[C@H](Oc4cnc(C5CC5)cn4)C[C@H]3C2)c1` [Example 159, 3-{[(7R,8aS)-7-[(5-cyclopropylpyrazin-2-yl)oxy]hexahydropyrrolo[1,2-a]-pyrazin-2(1H)-yl]sulfonyl}benzonitrile] the figure was 5.33; with `O=S(=O)(c1cccc(C(F)(F)F)c1)N1CCN2CC[C@@H](Oc3ccc(Cl)cn3)[C@@H]2C1` (relative stereo) [Example 35, (8R*,8aS*)-8-[(5-chloropyridin-2-yl)oxy]-2-{[3-(trifluoromethyl)phenyl]-sulfonyl}octahydropyrrolo[1,2-a]pyrazine], 6.07.
In the case of `Cc1nn(C(C)C)cc1S(=O)(=O)N1CCN2C[C@H](Oc3cnc(C4CC4)cn3)C[C@H]2C1` [Example 183, (7R,8aS)-7-[(5-cyclopropylpyrazin-2-yl)oxy]-2-[(1-isopropyl-3-methyl-1H-pyrazol-4-yl)sulfonyl]octahydropyrrolo[1,2-a]pyrazine], the pIC50 is 5.37.
With `O=S(=O)(c1ccc(Br)c(C(F)(F)F)c1)N1CCN2C[C@H](Oc3cnc(C4CC4)cn3)C[C@H]2C1` [Example 128, (7R,8aS)-2-{[4-bromo-3-(trifluoromethyl)phenyl]sulfonyl}-7-[(5-cyclopropylpyrazin-2-yl)oxy]octahydropyaolo[1,2-a]pyrazine] the figure was 5.38.
`CC(C)(C)c1cccc(S(=O)(=O)N2CCN3C[C@H](Oc4cnc(C5CC5)cn4)C[C@H]3C2)n1` [Example 58, (7R,8aS)-2-[(6-tert-butylpyridin-2-yl)sulfonyl]-7-[(5-cyclopropylpyrazin-2-yl)oxy]octahydropyrrolo[1,2-a]pyrazine]: the pIC50 was 6.60.
As to `CC(C)c1cnc(O[C@@H]2C[C@H]3CN(S(=O)(=O)c4cccc(C(F)(F)F)c4)CCN3C2)cn1` [Example 118, (7R,8aS)-7-[(5-isopropylpyrazin-2-yl)oxy]-2-{[3-(trifluoromethyl)-phenyl]sulfonyl}octahydropyrrolo[1,2-a]pyrazine], the pIC50 was 6.31.
The result for `O=C(N[C@H]1C[C@H]2CN(S(=O)(=O)c3ccc(C(F)(F)F)cc3)CCN2C1)c1ccc(F)cc1` [Example 2, 4-fluoro-N-[(7S,8aS)-2-{[4-(trifluoromethyl)phenyl]sulfonyl}-octahydropyrrolo[1,2-a]pyrazin-7-yl]benzamide] reads 5.76; that for `O=C1[C@@H](Oc2cnc(C3CC3)cn2)C[C@H]2CN(S(=O)(=O)c3cccc(C(F)(F)F)c3)CCN12` [Example 209, (7S,8aS)-7-[(5-cyclopropylpyrazin-2-yl)oxy]-2-{[3-(trifluoromethyl)-phenyl]sulfonyl}hexahydropyrrolo[1,2-a]pyrazin-6(2H)-one], 6.21.
For `O=S(=O)(c1ccc(Cl)cc1F)N1CCN2C[C@H](Oc3cnc(C4CC4)cn3)C[C@H]2C1` [Example 130, (7R,8aS)-2-[(4-chloro-2-fluorophenyl)sulfonyl]-7-[(5-cyclopropylpyrazin-2-yl)oxy]octahydropyrrolo[1,2-a]pyrazine], the pIC50 was 5.89.
With `O=S(=O)(c1ccc(F)cc1F)N1CCN2C[C@H](Oc3cnc(C4CC4)cn3)C[C@H]2C1` [Example 62, (7R,8aS)-7-[(5-cyclopropylpyrazin-2-yl)oxy]-2-[(2,4-difluorophenyl)-sulfonyl]octahydropyrrolo[1,2-a]pyrazine] the figure was 5.86; with `O=S(=O)(c1cccc(C(F)(F)F)c1)N1CCN2C[C@H](Oc3ccc(C4CC4)nn3)C[C@H]2C1` [Example 44, (7R,8aS)-7-[(6-cyclopropylpyridazin-3-yl)oxy]-2-{[3-(trifluoromethyl)-phenyl]sulfonyl}octahydropyrrolo[1,2-a]pyrazine], 5.89; with `COc1ccc(S(=O)(=O)N2CCN3C[C@H](Oc4cnc(C5CC5)cn4)C[C@H]3C2)cc1C(C)(C)C` [Example 57, (7R,8aS)-2-[(3-tert-butyl-4-methoxyphenyl)sulfonyl]-7-[(5-cyclopropylpyrazin-2-yl)oxy]octahydropyrrolo[1,2-a]pyrazine], 5.74.
Turning to `O=S(=O)(c1cccc(C(F)(F)F)c1)N1CCN2C[C@@H](Oc3ccc4ocnc4c3)C[C@H]2C1` [Example 76, 5-{[(7S,8aS)-2-{[3-(trifluoromethyl)phenyl]sulfonyl}octahydropyrrolo[1,2-a]pyrazin-7-yl]oxy}-1,3-benzoxazole], the pIC50 was 6.09.
With `O=S(=O)(c1ccco1)N1CCN2C[C@H](Oc3cnc(C4CC4)cn3)C[C@H]2C1` [Example 33, (7R,8aS)-7-[(5-cyclopropylpyrazin-2-yl)oxy]-2-(2-furylsulfonyl)octahydropyrrolo[1,2-a]pyrazine] the figure was 5.20.

The term pIC50 denotes the IC50 on a negative log10 scale, so that one unit is a factor of ten.
